According to PubChem BioAssay AID463173 (ICCB-Longwood Screening Facility, Harvard Medical School, 2010):
The campaign covered roughly 52,000 compounds. About 1,700 (3.3%) were called active. Cut-off read from the data, not from the text of the source: active = survival mostly below about 52% (no sharp cut-off); inactive = mostly above about 56%. The list shows a part of the results.

System: Wild type
Test: S. aureus survival, RN4220 and DeltatarO strains – OD600, teichoic acid synthesis inhibitors, primary screen (AID 463173)
Conditions: S. aureus RN4220 wild type/DeltatarO growth, OD600, 18 h, active compounds read low, screened at 18.75 µg/mL (by protocol)

Row | SMILES | survival
1 | Fc1ccc(CNCCCSc2nnnn2-c2ccccc2)cc1 | inactive: 108%
2 | COc1ccc(Cn2c(C(=O)O)c(CNCc3ccc(OC)cc3OC)c3ccc(C)cc32)cc1 | inactive: 51%
3 | COc1ccc(NC(=O)CSCc2cc(=O)c3cc(C)ccc3[nH]2)cc1 | inactive: 86%
4 | CN(C(=O)CSc1nc2ccc(NC(=O)c3cccc(F)c3)cc2s1)c1ccccc1 | inactive: 77%
5 | CCOc1ccc(CNC(=O)c2ccc3c(Cl)c4c(nc3c2)CCCC4)cc1 | inactive: 82%
6 | CN(C)N1C(=O)/C(=C/c2cccs2)SC1=Nc1ccccc1 | inactive: 116%
7 | COc1cc(Cl)c(C)cc1NC(=O)CC1Oc2ccccc2NC1=O (stereo not drawn) | inactive: 72%
8 | Oc1ccc(-c2nnc(SCc3ccc(Cl)cc3)o2)cc1 | inactive: 112%
9 | CCNC(=O)CCCN1C(=O)CCn2nc(-c3cccn3C)cc21 | inactive: 67%
10 | O=C(c1cc2sccc2n1Cc1ccccc1)N1CCN(c2ccccc2F)CC1 | inactive: 130%
11 | COc1ccc(NC(=O)c2c(NCc3ccc(C)o3)sc3c2CCCCC3)c(OC)c1 | inactive: 136%
12 | COc1ccc(C(=O)Nc2ccc(-c3nc4ncccc4o3)cc2C)cc1Br | inactive: 60%
13 | CCn1c(=O)c2cc(C(=O)Nc3cccc(C(F)(F)F)c3)sc2c2ccccc21 | inactive: 75%
14 | O=S(=O)(c1ccc(C2CCCCC2)cc1)N1CCN(c2cc(Cl)ccc2Cl)CC1 | inactive: 80%
15 | COc1ccc(-n2c(/C=C/c3cccc4ccccc34)nc3ccccc3c2=O)cc1OC | inactive: 72%
16 | CCC(Sc1nc2nccnc2c(=O)n1Cc1ccccc1Cl)C(=O)NC1CCCCC1 (stereo not drawn) | inactive: 100%
17 | Cc1ccc2nc(NCc3ccccc3)c3nncn3c2c1 | inactive: 87%
18 | CCn1cc(C(=O)NCCc2ccc(Cl)cc2)c(=O)c2cc(S(=O)(=O)N(C)C3CCCCC3)ccc21 | inactive: 88%
19 | COc1ccc(CCNC(=O)c2cc3c(=O)n4cccc(C)c4nc3n2C)cc1 | inactive: 83%
20 | Cc1ccc(-c2csc(-c3c(N)c(C(=O)c4ccc5c(c4)OCO5)n4ccccc34)n2)cc1C | inactive: 104%
21 | CCOc1ccc(C2C(=O)N(C3CCCCCC3)CC(=O)N2Cc2ccc(C)cc2)cc1OC (stereo not drawn) | inactive: 72%
22 | Cc1cccc(N(CC(=O)NCCc2ccccc2)S(=O)(=O)c2ccccc2)c1C | inactive: 72%

Row | SMILES | survival
23 | CCC(CC)C(=O)Nc1nnc(S(=O)(=O)N(C)c2cc(C)cc(C)c2)s1 | inactive: 89%
24 | COc1ccc2c(C)c(CCC(=O)NCc3cccc(Cl)c3)c(=O)oc2c1 | inactive: 81%
25 | Cc1cccc(CSCCNC(=O)C2CCN(S(=O)(=O)Cc3ccccc3)CC2)c1 | inactive: 98%
26 | O=C(C[n+]1ccccc1)Nc1ccccc1 | inactive: 108%
27 | COc1ccc(NC(=O)CC2Oc3ccc(C)cc3NC2=O)cc1Cl (stereo not drawn) | inactive: 84%
28 | Cc1cc(C)cc(-n2ccn(CC(=O)NCCc3ccccc3)c(=O)c2=O)c1 | inactive: 83%
29 | COc1cc2c(cc1OC)C(COc1ccc3c(C)cc(=O)oc3c1)N(C(=O)Cc1ccc(F)cc1)CC2 (stereo not drawn) | inactive: 68%
30 | COC(=O)c1cc(-c2cc(OC)c(OC)c(OC)c2)no1 | inactive: 88%
31 | CCOc1ccc(N(CC(=O)NCc2ccc(OC)cc2)S(=O)(=O)c2c(C)[nH]c(=O)[nH]c2=O)cc1 | inactive: 79%
32 | CCOC(=O)c1c(NC(C)=O)c2c3c(sc2n1Cc1c(C)cc(C)cc1C)CCCC3 | inactive: 88%
33 | COc1ccc(Cn2ccnc2SCC(=O)Nc2ccc3c(c2)OCCO3)cc1 | inactive: 70%
34 | Cc1ccc2c(c1)N(CC(=O)Nc1ccccc1C(F)(F)F)C(=O)c1cccnc1O2 | inactive: 143%
35 | COc1cccc(C(=O)N(Cc2cccc(F)c2)C2CCS(=O)(=O)C2)c1 (stereo not drawn) | inactive: 87%
36 | COCCNC(=S)N1CCC(NC(=O)NC23CC4CC(CC(C4)C2)C3)CC1 | inactive: 102%
37 | Cc1c(Cl)cccc1NC(=O)c1oc2ccc(S(=O)(=O)N3CCCCCC3)cc2c1C | inactive: 72%
38 | O=C(Nc1cccc(F)c1)c1ccc2oc(=O)n(Cc3ccccc3)c2c1 | inactive: 81%
39 | COc1cccc(OC)c1C(=O)Nc1ccc(-c2nc3ncccc3o2)cc1 | inactive: 88%
40 | CCOC(=O)c1cc2c(=O)n3ccccc3nc2n(Cc2ccco2)c1=NC(=O)c1ccc(C(C)(C)C)cc1 | inactive: 72%
41 | Cc1ccc(Sc2ccc(N3CCC(C(=O)Nc4cc(C)cc(C)c4)CC3)nn2)cc1 | inactive: 64%
42 | Cc1ccc(C2CC(=O)n3nc(-c4ccc(Cl)cc4)nc3S2)cc1 (stereo not drawn) | inactive: 99%
43 | Cc1c(Cl)cccc1-n1ncc(C(=O)NCCN2CCN(C)CC2)c1C1CCN(C(=O)OC(C)(C)C)CC1 | inactive: 78%
44 | O=C(Cn1c(=O)n(-c2ccccc2)c(=O)c2c3c(sc21)CCC3)c1ccc(F)cc1 | inactive: 76%

Row | SMILES | survival
45 | O=C(NCc1ccccc1)c1ccc2c(c1)N(Cc1ccccc1F)C(=O)c1ccccc1S2=O (stereo not drawn) | inactive: 101%
46 | COc1cccc(CN(C(=O)COc2ccc(Cl)c(C)c2)C2CCS(=O)(=O)C2)c1 (stereo not drawn) | inactive: 78%
47 | O=C(Nc1ccc(Cl)cc1)c1cnn2c1NC(c1ccccc1)=CC2c1ccccc1 (stereo not drawn) | inactive: 45%
48 | CCc1ccc(NC(=O)CSc2nc3c([nH]c4ccccc43)c(=O)n2-c2ccc(C)cc2)cc1 | inactive: 159%
49 | Cc1ccc(CNC(=O)CCS(=O)(=O)c2cc3c4c(c2)CCN4C(=O)CC3)cc1 | inactive: 60%
50 | Cc1ccc(NC(=O)c2ccc(NC(=O)N3CCSc4ncccc43)cc2)c(Cl)c1 | inactive: 57%
51 | CCN(CC)c1cc(C)c2cc(NC(=O)c3ccc(OC)c(OC)c3)ccc2n1 | inactive: 68%
52 | CCOC(=O)c1scc(-c2ccccc2)c1S(=O)(=O)N1CCN(c2ccc(Cl)cc2)CC1 | inactive: 92%
53 | COc1ccc(-c2cc(C)no2)cc1S(=O)(=O)N1CCN(c2cccc(C)c2)C(C)C1 (stereo not drawn) | inactive: 73%
54 | Cc1ccccc1NC(=O)NCCc1c[nH]c2ccccc12 | inactive: 66%
55 | O=C(Nc1ccccc1)c1cnc(N2CCCCC2)c2ccccc12 | inactive: 59%
56 | COc1ccccc1C(=O)Nc1c(C(=O)Nc2cc(Cl)ccc2C)sc2nc(C)cc(C)c12 | inactive: 78%
57 | COc1cccc(CN2C(=O)c3ccccc3Sc3ccc(C(=O)NCc4ccccc4)cc32)c1 | inactive: 85%
58 | COc1cccc(N2CCN(C(=O)c3cnc4c(-c5ccccc5)c(C)nn4c3C)CC2)c1 | inactive: 76%
59 | Fc1ccccc1Nc1c2c(nc3ccccc13)CCC2 | inactive: 102%
60 | N#CCSc1nnc(CNc2ccc(Cl)cc2)n1-c1ccccc1 | inactive: 115%
61 | COc1cccc2cc(C(=O)N3CCN(c4cc(C)ccc4C)CC3)c(=O)oc12 | inactive: 80%
62 | Cc1nc(SCC(=O)N2CCN(c3ccccc3)CC2)[nH]c(=O)c1C | inactive: 88%
63 | O=C1CC(C(=O)O)C2(CCCC2)O1 (stereo not drawn) | inactive: 118%
64 | COc1ccc(N2CCN(C(=O)c3cc4sccc4n3Cc3ccccc3)CC2)cc1 | inactive: 108%
65 | COc1ccc(-c2ccc(NS(=O)(=O)c3ccc(NC(C)=O)cc3)cc2)nn1 | inactive: 81%
66 | COc1ccc(OC)c(NC(=O)c2c(NCc3cccs3)sc3c2CCCCC3)c1 | inactive: 80%

Row | SMILES | survival
67 | CCN(CC)c1ccc(NC(=O)c2c(C)nn(-c3ccc(F)cc3)c2-n2cccc2)c(C)c1 | inactive: 73%
68 | CCc1ccccc1NC(=O)CN(C)S(=O)(=O)c1cccc2nsnc12 | inactive: 78%
69 | CCOc1cc(CNC(=O)c2cc(-c3ccccc3)n[nH]2)cc(OCC)c1OCC | inactive: 68%
70 | COc1ccc(CCNC(=O)c2ccc3c(c2)CCN3S(=O)(=O)c2ccccc2)cc1 | inactive: 99%
71 | CCc1ccc(NC(=O)CSc2nc3nc(C)cc(C)n3n2)cc1 | inactive: 67%
72 | COc1ccc(-c2noc(N3CCC(C(=O)Nc4cccc(C)c4C)CC3)n2)cc1 | inactive: 84%
73 | CCOc1cc(C(c2c(C)[nH]n(-c3ccccc3)c2=O)c2c(C)[nH]n(-c3ccccc3)c2=O)ccc1O | inactive: 64%
74 | COc1cc(/C=C/C(=O)C2CC2)cc(OC)c1OC | inactive: 89%
75 | COc1ccc(NC(=O)c2oc3ccc(S(=O)(=O)N4CCOCC4)cc3c2C)c(OC)c1 | inactive: 152%
76 | COc1ccc(N2CCN(C(=O)c3cc4c(=O)n(Cc5cccnc5)ccc4nc3C)CC2)cc1 | inactive: 88%
77 | COc1ccc(CCNC(=O)c2cnn(-c3ccc(F)cc3)c2C2CCN(C(=O)OC(C)(C)C)CC2)cc1OC | inactive: 68%
78 | O=C(CN1C(=O)C2(SCC(=O)N2c2ccc(F)c(F)c2)c2ccccc21)NCCc1ccccc1 (stereo not drawn) | inactive: 80%
79 | CC(Oc1ccccc1)C(=O)Nc1ccc(C(=O)OCc2cc(=O)n3nc(C(C)C)sc3n2)cc1 (stereo not drawn) | inactive: 72%
80 | Cc1[nH]c2ccc(C(=O)N3CCN(c4ccccc4F)CC3)cc2c1C | inactive: 74%
81 | CCN(CC)S(=O)(=O)c1ccc(NC(=O)Cn2ncc3c([nH]c4ccccc43)c2=O)cc1 | inactive: 80%
82 | CCOc1ccc(/C=C/c2nc(C#N)c(N3CCN(CC)CC3)o2)cc1 | inactive: 79%
83 | Cc1cc(C)cc(OCC(=O)Nc2nc(-c3ccc(F)cc3)ns2)c1 | inactive: 89%
84 | Cc1cc(F)ccc1NC(=O)c1csc2c1CCC(C)C2 (stereo not drawn) | inactive: 90%
85 | Cc1ccccc1NC(=O)CSc1c(C(C)C)cnc2c1c(=O)n(C)c(=O)n2C | inactive: 74%
86 | CC1OC(Nc2ccc(OC(F)(F)F)cc2)C(O)C(O)C1O (stereo not drawn) | inactive: 114%
87 | COC(=O)c1cc(NS(=O)(=O)c2ccc3c(c2)OCCO3)ccc1Cl | inactive: 67%
88 | CCOc1ccccc1NC(=O)CSc1nc2ccccc2nc1N1CCOCC1 | active: -11%
